# Data taken from PubChem BioAssay AID485281 (National Center for Advancing Translational Sciences (NCATS), 2010).
# “And” between values parts separate entries of the source, which are not always exact repeats. Equal entries are not always repeated. In all, about 350,000 compounds went through this assay and about 260 (0.074%) were called active. The inconclusive results got no clear call from the source; some entries with a clear call stand among them for comparison. The call rests on the fitted dose curve; in most records, active means well fitted inhibition curve with a large enough effect; inconclusive means small, poorly fitted or top-dose-only effect; inactive means no such curve, though single readings can be large or run the other way. Where the call is inconclusive, the potency comes from a doubtful curve fit.
# Target: Ferritin light chain (Equus caballus) (UniProt P02791)
# Sequence of UniProt P02791 (P02791 whole entry, looked up): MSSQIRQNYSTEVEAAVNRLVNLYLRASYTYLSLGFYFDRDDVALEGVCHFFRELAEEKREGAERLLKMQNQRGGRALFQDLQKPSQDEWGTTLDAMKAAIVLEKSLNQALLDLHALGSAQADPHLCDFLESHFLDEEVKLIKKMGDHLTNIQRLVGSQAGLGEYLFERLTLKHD
# Assay: qHTS Assay for Identification of Novel General Anesthetics; further: nearly all actives have a fitted effect of over 20% in size
# Settings: apoferritin/1-aminoanthracene competitive binding, fluorescence; activity change, negative = displacement: at 77.5 µM (top of the series)
# Procedure, shortened: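 Read-out: endpoint 1-AMA fluorescence, excitation 380 nm and emission 535 nm, after compounds sit 10 min at room temperature with 10 uM horse-spleen apoferritin in 50% saturated 1-AMA/PBS. Values come from four-parameter Hill fits.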
# On the % scale 0 is the no-effect control and ±100 the full control effect; potency means the concentration at half of the fitted maximal effect; tags describe the fitted curve by direction and shape.
SMILES,Potency,"activity change, negative = displacement"
O=C(N/N=C/c1cccs1)C1CC(=O)N(c2ccccc2)C1 (stereo unspecified),"inconclusive: 25.1 µM [inhibitor, partial curve]",–
CCOC(=O)c1sc(=NC(=O)c2c(F)cccc2F)n(C)c1C,–,inconclusive: -25.6% [inhibitor]
S=C(NCc1cccnc1)Nc1ccc(Cl)c(Cl)c1,"inconclusive: 35.5 µM [inhibitor, partial curve]",–
COc1ccc(Br)cc1C(=O)NC(=S)Nc1ccc(CN2CCOCC2)cc1,"inconclusive: 35.5 µM [inhibitor, partial curve]",–
CCc1ccc(N(C)S(=O)(=O)c2ccc3[nH]cc(C(=O)NCC4CCCO4)c(=O)c3c2)cc1 (stereo unspecified),"inconclusive: 39.8 µM [inhibitor, single point]",–
O=C(CSc1ccc2c(c1)OCCO2)Nc1ccc(Cl)cn1,"inconclusive: 50.1 µM [inhibitor, single point]",–
Cc1ccc(-c2nn(-c3ccccc3)cc2C=C2C(=O)CC(C)(C)CC2=O)cc1,–,inactive: -3.74%
N#CCc1ccc(NS(=O)(=O)c2cccs2)cc1,"inconclusive: 25.1 µM [inhibitor, partial curve]",–
Cc1cc(OCc2cc(C(=O)N(C)CCc3cnn(C)c3)no2)cc(C)c1Cl,–,inactive: -23.9%
O=C(COC(=O)c1ccccn1)NC1CCCCC1,"inconclusive: 28.2 µM [inhibitor, partial curve]",–
O=c1[nH]cc(NCCNc2ncc(C(F)(F)F)cc2Cl)c(=O)[nH]1,"inconclusive: 39.8 µM [inhibitor, single point]",–
CC(=O)c1ccc(N2CCN(CC(=O)Nc3cc(C)on3)CC2)cc1,–,inactive: -5.38%
COc1cccc(C(C)NC(=O)Nc2ccccc2Cl)c1 (stereo unspecified),"inconclusive: 56.2 µM [inhibitor, single point]",–
COc1ccc(N2CCN(C(=O)c3cccc(N4C(=O)C5C6C=CC(C6)C5C4=O)c3)CC2)cc1 (stereo unspecified),"inconclusive: 35.5 µM [inhibitor, single point]",–
NNC(=O)c1ccc(CSc2nc3ccccc3s2)cc1,–,inactive: -13.6%
C/C(=N\Nc1cccc(Cl)c1)c1ccncc1,"inconclusive: 25.1 µM [inhibitor, partial curve]",–
O=C(c1ccc(Cl)c([N+](=O)[O-])c1)N1CCCc2ccccc21,"inconclusive: 28.2 µM [inhibitor, partial curve]",–
Oc1ccc(C(=S)N2CCCCC2)cc1,"inconclusive: 7.08 µM [inhibitor, partial curve]",–
Cc1cc(C)c(S(=O)(=O)c2c(C)cccc2C)c(Cl)n1,"inconclusive: 28.2 µM [inhibitor, partial curve]",–
O=C(NCc1cccnc1)c1ccc2c(c1)C(=O)N(Cc1ccccc1)C2=O,"inconclusive: 17.8 µM [inhibitor, partial curve]",–
COC(=O)c1cccc(NS(=O)(=O)c2cccs2)c1C,–,inactive: -23.4%
CCCC(=O)N1CC(=O)Nc2ccc(F)cc2C1c1ccccc1 (stereo unspecified),–,inactive: -6.64%
O=C(Cn1cc(C(F)(F)F)ccc1=O)N/N=C/c1ccc(Cl)c(Cl)c1,"inconclusive: 50.1 µM [inhibitor, single point]",–
Nc1ccccc1SCc1ccccc1,"inconclusive: 11.2 µM [inhibitor, partial curve]",–

SMILES,Potency,"activity change, negative = displacement"
NS(=O)(=O)c1ccc(N2C(=O)C3C4CC(C(Br)C4Br)C3C2=O)cc1 (stereo unspecified),"inconclusive: 56.2 µM [inhibitor, single point]",–
CCc1noc2c1/C(=N\O)CC(c1ccccc1)C2 (stereo unspecified),"inconclusive: 14.1 µM [inhibitor, partial curve]",–
COc1ccc(NC(=O)N2CCCCCC2)cc1,"inconclusive: 14.1 µM [inhibitor, partial curve]",–
CCOC(=O)c1ccc(NS(=O)(=O)c2ccc3[nH]c4c(c3c2)CCCCC4)cc1,"inconclusive: 2.82 µM [inhibitor, full curve, poor fit]",–
CCCCc1ccc(-c2csc(/C(C#N)=C/c3ccc(C)o3)n2)cc1,"inconclusive: 35.5 µM [inhibitor, single point]",–
CN(C)S(=O)(=O)c1cc(C(=O)NCCCn2ccc3ccccc32)ccc1Cl,"inconclusive: 15.8 µM [inhibitor, partial curve]",–
CCc1nn(CC(=O)N2CCN(c3cccc(C(F)(F)F)c3)CC2)c(=O)c2cccn12,"inconclusive: 8.91 µM [inhibitor, partial curve]",–
Cc1cccc(Nc2ncnc3c2cnn3Cc2ccccc2)c1,"inconclusive: 39.8 µM [inhibitor, single point]",–
Cn1nnnc1SCCCNCc1cccc(OCc2ccccc2Cl)c1,"inconclusive: 3.55 µM [inhibitor, full curve]",–
CCCOc1ccc(OCCn2nc(C(=O)O)c3ccccc3c2=O)cc1,"inconclusive: 39.8 µM [inhibitor, partial curve]",–
NC(=O)CC(NC(=O)c1ccccc1)c1ccc(NC2CCCCCCC2)c([N+](=O)[O-])c1 (stereo unspecified),"inconclusive: 3.55 µM [inhibitor, full curve, poor fit]",–
Fc1ccc(F)c(C2=NNC(=Nc3ccccc3F)SC2)c1,–,inactive: -21.7%
CC1CCCC(C)N1C(=O)COc1ccccc1F (stereo unspecified),"inconclusive: 14.1 µM [inhibitor, partial curve]",–
COC(=O)c1oc2ccccc2c1N,–,inactive: -17%
Cc1ccc(CNS(=O)(=O)c2ccc3c(c2)NC(=O)CS3)cc1,–,inactive: -12.1%
O=C(Cc1ccc([N+](=O)[O-])cc1)N/N=C/c1ccc([N+](=O)[O-])o1,"inconclusive: 28.2 µM [inhibitor, partial curve]",–
O=C(Nc1nc(-c2ccccn2)cs1)c1ccc(Cl)s1,–,inactive: -7.46%
C/C(=N/NC(=O)CNC(=O)c1ccccc1)c1ccc(C)cc1,"inconclusive: 6.31 µM [inhibitor, full curve]",–
COc1ccc(CNc2oc(-c3ccc(COc4ccc(OC)cc4)o3)nc2C#N)cc1,–,inactive: 591%
COc1ccc(/C=N/Nc2ncc(-c3ccccc3)cn2)c(OC)c1,–,inactive: 0.985%
ClC1(Cl)CC1CSc1nc2ccccc2[nH]1 (stereo unspecified),"inconclusive: 50.1 µM [inhibitor, single point]",–
CC(C)(C)c1cc(=O)[nH]c(SCc2ccccc2)n1,"inconclusive: 25.1 µM [inhibitor, single point]",–
Cc1ccc(-c2csc3nnc(SCC(=O)N4CCN(Cc5ccccc5)CC4)n23)cc1,"inconclusive: 17.8 µM [inhibitor, partial curve]",–
COc1ccc(NC(=O)CN2CCN(S(=O)(=O)c3ccc(Cl)cc3)CC2)cc1Cl,–,inactive: -10.1%

SMILES,Potency,"activity change, negative = displacement"
Cc1cc(C)cc(CC2CC(=O)N(c3nc(C)cc(C)n3)C2=O)c1 (stereo unspecified),active: 5.62 µM,–
NC(=NCc1ccc(Cl)cc1Cl)NC(=O)c1nc(Cl)c(N)nc1N,"inconclusive: 25.1 µM [inhibitor, single point] and inconclusive: 28.2 µM [inhibitor, single point]",–
Cc1c(Cc2ccccc2)c(=O)n2c([nH]c3ccccc32)c1C#N,–,inactive: 1.69%
CCO[C@H]1OC(C(=O)N2CCN(Cc3ccccc3)CC2)=C[C@@H](c2ccc(C(F)(F)F)cc2)[C@@H]1CCCO,"inconclusive: 31.6 µM [inhibitor, partial curve]",–
CCCCN(C)C(=O)Cn1c(SCC(=O)Nc2ccc(C)c(C)c2)nc2ccccc21,–,inactive: 49.2%
COc1cc(/C=N\NC(=O)CNC(=O)c2cccc([N+](=O)[O-])c2)ccc1O,"inconclusive: 31.6 µM [inhibitor, partial curve]",–
O=C1N=C(N2CCOCC2)S/C1=C\C=C/c1ccccc1,"inconclusive: 39.8 µM [inhibitor, partial curve]",–
O=C(/C=C/c1cccs1)Nc1nncs1,–,inactive: -12.5%
COC(=O)c1cnc(Oc2c(Cl)cc(N)cc2Cl)cc1C(F)(F)F,"inconclusive: 28.2 µM [inhibitor, single point]",–
O=C(Cn1nc(-c2ccc(Cl)cc2)ccc1=O)NCc1ccc2c(c1)OCO2,"inconclusive: 7.94 µM [inhibitor, full curve]",–
Cn1c(SCC(=O)c2ccccc2)nnc1-c1ccccn1,–,inactive: -6.64%
CC1=C(C)CC2C(=O)N(Cc3ccccc3)C(=O)C2C1 (stereo unspecified),"inconclusive: 25.1 µM [inhibitor, partial curve]",–
CNc1nc(-c2ccc(Cl)cc2)cs1,"inconclusive: 12.6 µM [inhibitor, partial curve]",–
Cc1cccc(Nc2ccccc2)c1,"inconclusive: 11.2 µM [inhibitor, partial curve]",–
CC1(C)CCN(Cc2ccccc2)C1CC#N (stereo unspecified),"inconclusive: 20 µM [inhibitor, partial curve]",–
CCCC(=O)Nc1ccc(C(=O)/C=C/c2ccc(SC)cc2)cc1,"inconclusive: 44.7 µM [inhibitor, single point]",–
N#Cc1ccsc1NC(=O)CCS(=O)(=O)c1ccccc1,–,inactive: -9.29%
CCn1cc(Cl)c(C(=O)Nc2nc3ccccc3n2CCN2CCCCC2)n1,–,inactive: -13.2%
CC(CNC(=O)c1cc(COc2c(F)cccc2F)on1)c1ccccc1 (stereo unspecified),"inconclusive: 15.8 µM [inhibitor, partial curve]",–
Cc1cc(N2CCN(c3ccc(C(F)(F)F)cc3[N+](=O)[O-])CC2)c2ccccc2n1,–,inactive: -22.9%
O=C(c1ccc2c(Cl)c3c(nc2c1)CCCC3)N1CCN(c2ccccc2F)CC1,"inconclusive: 5.62 µM [inhibitor, full curve]",–
O=C(c1cc(COc2ccc(F)cc2Cl)on1)N1CCc2ccccc2C1,"inconclusive: 6.31 µM [inhibitor, single point]",–
COc1ccc(NC(=S)N2CCCC(c3nc4ccc(C)cc4[nH]3)C2)cc1 (stereo unspecified),"inconclusive: 28.2 µM [inhibitor, single point]",–
